Screen size: about 43,000 compounds; about 200 (0.47%) were called active. Another 12% or so got no clear call; they are omitted. The call rests on the fitted dose curve; in most records, active means well fitted cell-killing curve with a large enough effect; inconclusive means small, poorly fitted or top-dose-only effect, or effect the other way; inactive means flat fitted curve, though single readings scatter. This is one part of the list.
On the % scale 0 is the no-effect control and ±100 the full control effect; potency means the concentration at half of the fitted maximal effect.

This assay in a line: Cell viability qHTS assay in S16 Pmp22-F2sN cells. Further: nearly all actives have a fitted effect of over 65% in size. The note with it: S16 Pmp22-F2sN Schwann cells viability, CellTiter-Glo, 24 h; series mostly up to 57.5 µM; activity change, negative = cytotoxicity: at the top concentration. Summed up: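 S16 Pmp22-F2sN Schwann cells (500-1,000/well) in phenol-red-free DMEM with 10% FBS received 23 nL compound by pin tool for 24 h at 37 °C. Viability was then read as CellTiter-Glo luminescence after 15 min at room temperature.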
For the compound `Cc1ccc(OCC(=O)Nc2ccccc2OCc2cc(=O)n3ccccc3n2)cc1C`, the “activity change, negative = cytotoxicity” value was inactive: 2.35%.
The same measure, in the same setting: the result for `CC(C)(C)CC(=O)NCC(c1ccc2c(c1)OCO2)N1CCOCC1` (configuration not stated) reads inactive: -10.9%.
As to `O=C(Nc1cccc(F)c1)c1ccc2c(c1)N(Cc1ccccc1)C(=O)c1ccccc1S2(=O)=O`, the “activity change, negative = cytotoxicity” value is inactive: 1.83%.
Take `O=C(COc1ccc(Cl)cc1)OCc1cc(=O)n2nc(C3CC3)sc2n1`: the “activity change, negative = cytotoxicity” value is inactive: -25.3%.
On to `CCN(c1ccccc1)S(=O)(=O)c1c(-c2ccc(C)cc2)csc1C(=O)OC`, for which the “activity change, negative = cytotoxicity” value was inactive: 2.59%.
As to `COc1ccccc1C(=O)Nc1ccc2oc(-c3cccc4c(Br)cccc34)nc2c1`, the “activity change, negative = cytotoxicity” value is inactive: 3.37%.
On to `CCCN1Cc2cccc(C(=O)Nc3cccc(C(=O)OCC)c3)c2C1=O`, for which the “activity change, negative = cytotoxicity” value is inactive: 4.7%.
As to `CCC1Oc2ccc(Cl)cc2N(CC(=O)NCCc2ccc(Cl)cc2)C1=O` (configuration not stated), the “activity change, negative = cytotoxicity” value is inactive: -0.466%.
The same measure, in the same setting: the result for `COCCNc1nc(NCc2cccc(Cl)c2)c2cnn(C)c2n1` reads inactive: -14%.
On the same count and under the same terms, the result for `C=Cc1ccc(Cn2c(C)c(CNCc3ccccc3C)c(C(=O)O)c2C)cc1` reads inactive: 3.48%; that for `COc1ccccc1CNC(=O)CCn1c(=O)c2cccn2c2cccnc21`, inactive: 7.34%; that for `O=C(Cc1csc2nc(-c3ccc(F)cc3)cn12)NCc1ccccc1`, inactive: 0.0519%.
Still for that read-out and setting: the result for `O=[N+]([O-])c1cc(-c2nc(-c3ccccc3)no2)ccc1NC1CCCCC1` reads inactive: 3.64%; that for `Cc1ccc(CO)cc1Nc1ncnc2onc(-c3ccc(F)cc3)c12`, inactive: 15.2%.
As to `CCOc1cccc2cc(S(=O)(=O)c3ccccc3F)c(=O)oc12`, the “activity change, negative = cytotoxicity” value was inactive: 0.407%.
As to `CCS(=O)(=O)N1CC(=O)N(c2ccc(Cl)cc2)C(C)(C(=O)NC2CCCCC2)C1` (configuration not stated), the “activity change, negative = cytotoxicity” value was inactive: 5.35%.
The same measure, in the same setting: the result for `CC(=O)Nc1ccccc1-c1nc2ccccc2n(CC(=O)Nc2cccc(C(F)(F)F)c2)c1=O` reads inactive: 1.88%.
Still for that read-out and setting: the result for `COc1ccc(/C=C/C(=O)Nc2nc(-c3cccs3)ns2)cc1OC` reads inactive: 15.3%; that for `CCOc1ccc(CNC(=O)c2ccc3c(c2)nc2n3CCOC2)cc1OC`, inactive: 0.191%; that for `CCc1cccc(NC(=O)C(Cc2ccccc2)n2cccc2)c1` (configuration not stated), inactive: -3.87%.
Same read-out and setting: to `COc1ccc(N2CC(NC(=O)c3ccc(S(=O)(=O)N4CCCCC4)cc3)CC2=O)cc1` (configuration not stated) belongs inactive: 6.9%.
`CCc1ccc(NC(=O)CN(c2cc(C)cc(C)c2)S(=O)(=O)c2c(C)[nH]c(=O)[nH]c2=O)cc1`: the “activity change, negative = cytotoxicity” value was inactive: 3.83%.
Same read-out and setting: the result for `CC1=C(C(=O)Nc2ccc(F)cc2F)C2(CCN(C(C)C)CC2)OC1=O` reads inactive: -0.155%; that for `CCCOc1cccc(C(=O)Nc2cc(-c3ccccc3)no2)c1`, inactive: -24.9%; that for `CC1=C(c2ccc(C(C)C)cc2)S(=O)(=O)N=C1N1CCC(C(=O)NCCc2ccco2)CC1`, inactive: -4.26%.
As to `COc1cccc(-c2nc(SCC(=O)NC3CCCC3)c(-c3ccc(C)cc3)[nH]2)c1`, the “activity change, negative = cytotoxicity” value was inactive: -7.52%.
As to `CCN(CC)C(=O)CSc1nc(-c2ccc(C)cc2)nc2c1Cc1c(CO)cnc(C)c1O2`, the Potency is active: 10 µM.
On to `COc1cccc(NC(=O)CC2Nc3cc(C)c(C)cc3NC2=O)c1` (configuration not stated), for which the “activity change, negative = cytotoxicity” value was inactive: -9.92%.
The same measure, in the same setting: the result for `Cc1ccc(C)c(N2CCN(C(=O)CSCc3ccccc3Cl)CC2)c1` reads inactive: -16.9%.
Consider `Cc1ccc(CNC(=O)CC2Oc3ccc(Cl)cc3NC2=O)cc1` (configuration not stated), for which the “activity change, negative = cytotoxicity” value is inactive: 0.0775%.
Still for that read-out and setting: to `CCOc1ccc(NS(=O)(=O)c2ccc3c4c(cccc24)C(=O)N3)cc1` belongs inactive: -26.8%; to `Cc1cccc(NC(=O)CCS(=O)(=O)c2cc(Br)cc3c2N(C(=O)C2CC2)CC3)c1`, inactive: 6.17%.
On the same count and under the same terms, the result for `COc1ccccc1NC(=O)COc1ccc(-c2nn(C)c(=O)c3ccccc23)cc1` reads inactive: 20.4%; that for `CC(=O)N1c2ccc(S(=O)(=O)Nc3ccc(Cl)cc3C)cc2CC1C` (configuration not stated), inactive: -20.4%; that for `COc1cc(OC)cc(-c2nc3n(n2)C(c2ccccc2)C(C(N)=O)=C(C)N3)c1` (configuration not stated), inactive: 2.16%.
Still for that read-out and setting: the result for `COc1cccc(CNC(=O)c2cc(Sc3cccc(Cl)c3)nc3ccccc23)c1` reads inactive: 11.3%.
Regarding `COc1ccc(-c2c(C)c3ccc(O)c(CN4CCN(CCO)CC4)c3oc2=O)cc1OC`, the “activity change, negative = cytotoxicity” value is inactive: -0.286%.
`CCOC(=O)c1c(NC(=O)COc2cccc(C)c2C)sc2c1CCC(CC)C2` (configuration not stated): the “activity change, negative = cytotoxicity” value was inactive: 6.32%.
For the compound `Cc1c(C(=O)N2CCOCC2)oc2c1-c1nn(CC(=O)NCc3cccc(Cl)c3)cc1CC2`, the “activity change, negative = cytotoxicity” value was inactive: 2.7%.
The same measure, in the same setting: to `CCCCN(CC)CCCNC(=O)Cn1ncc2c([nH]c3ccc(C)cc32)c1=O` belongs inactive: 5.95%.
The same measure, in the same setting: to `O=c1c2cn[nH]c2nc(SCc2c(F)cccc2F)n1-c1ccc(Cl)cc1` belongs inactive: 1.5%; to `O=C(Cn1cnc2ccccc2c1=O)NCCC(=O)Nc1ccc(F)cc1`, inactive: 8.95%.
Turning to `CC(C)COc1ccc(C(=O)Nc2cc(-c3ccccc3)no2)cc1`, the “activity change, negative = cytotoxicity” value was inactive: -2.49%.
Still for that read-out and setting: the result for `COc1cccc(N2CCN(S(=O)(=O)c3cc(-c4cc(C)no4)ccc3C)CC2)c1` reads inactive: 6.42%.
On the same count and under the same terms, to `COc1ccc(N(CC(=O)N2CCN(c3ccc(F)cc3)CC2)S(=O)(=O)c2c(C)noc2C)cc1` belongs inactive: 0.325%; to `CCOc1cccc(C(=O)Nc2nc3c(s2)CC(C(C)(C)C)CC3)c1` (configuration not stated), inactive: 1.07%; to `O=C(NCc1ccco1)c1ccc2c(c1)N(Cc1ccc(F)cc1)C(=O)c1ccccc1S2(=O)=O`, inactive: -1.57%.
The same measure, in the same setting: to `CCN(C(=O)CSc1nc2ccccc2n1Cc1ccc(F)cc1Cl)c1ccccc1` belongs inactive: -17.8%; to `COc1ccc(CCNC(=O)c2c(C)oc3ncn(C)c(=O)c23)c(OC)c1`, inactive: -0.172%; to `CC(=O)Nc1ccc(N(C(=O)Cn2nnc3ccccc32)C(C(=O)NCc2ccccc2)c2ccc(C)cc2)cc1` (configuration not stated), inactive: 0.437%.
In the case of `CN(C)c1ccc(Nc2ncnc3sc4c(c23)CCCC4)cc1`, the “activity change, negative = cytotoxicity” value was inactive: -14.9%.
As to `COc1ccc(CC(=O)NCc2nc3cccnc3n2Cc2ccccc2)cc1`, the “activity change, negative = cytotoxicity” value was inactive: 14.1%.
In the case of `COC(=O)c1ccccc1NC(=O)CCCn1c(=O)c2cccn2c2cccnc21`, the “activity change, negative = cytotoxicity” value was inactive: 17.8%.
On to `CCOC(=O)C(Cc1c[nH]c2ccccc12)NC(=O)COc1ccc(CC)cc1` (configuration not stated), for which the “activity change, negative = cytotoxicity” value was inactive: 8.24%.
Still for that read-out and setting: to `Cc1cc(NC(=O)CN2CCC(C)CC2)nc2c1c(=O)oc1ccccc12` belongs inactive: 20.1%; to `Cc1ccc(Cl)cc1NC(=O)CN1C(=O)CCc2ccccc21`, inactive: -0.298%; to `COc1ccc(C)cc1N(C)C(=O)CCc1nc(-c2ccccc2F)no1`, inactive: -8.9%.
Consider `COc1ccccc1CCNC(=O)C(C)Sc1nc(-c2ccccc2)cc(C(F)(F)F)n1` (configuration not stated), for which the “activity change, negative = cytotoxicity” value is inactive: -8.02%.
The same measure, in the same setting: the result for `COc1ccc(C(=O)Nc2nc(-c3nnn(-c4ccc(C(C)C)cc4)c3C)ns2)cc1` reads inactive: -23.3%; that for `Cc1noc(/C=C/c2ccccc2F)c1S(=O)(=O)N1CCC(C(=O)N2CCOc3ccccc32)CC1`, inactive: 13.2%; that for `COc1ccc(C)cc1NC(=O)Nc1cccc(-c2noc(C)n2)c1`, inactive: 11.2%.
Still for that read-out and setting: the result for `CCc1ccc(NC(=O)Cn2c(=O)n(CCC(=O)NCCc3ccc(Cl)cc3)c(=O)c3ccccc32)cc1` reads inactive: -6.17%.

(Values after PubChem BioAssay AID1508642 (National Center for Advancing Translational Sciences (NCATS), 2021).)
